In the RNAGym collection of RNA variant scans (doi:10.7554/elife.90254):
The source gives no read counts; variants with many changes may rest on few reads.

B1: LINE1-mini (parent)
chain: GGCAGAGCUCAACACAGCGUGGCAAAGUGGCUGUGGCUAGACUGCC

Variants of: B1
Assay: self-cleavage, relative activity (ratio to wild type); higher = more cleavage; in vitro, sequencing; the parent is a self-cleaving ribozyme

Variant	self-cleavage
G1U C15G G36U	0.02
C3U C18U U43A	0.03
G21C G27C U43A	0.09
C13A A14C C37G	0.03
C10G U20C G40C	0.02
C10G A14C C15U A25U	0
G33U U38A G40A	0.08
G19C U20A G35U A39C	0.03
C13A G19C A24C	0.02
C8U C42A C45G	0.14
G2U U34G G35U C45A	0.03
G1C C3U G21A A24C G27C U34G	0.03
U32C C45G C46A	0.11
U20G C37A A41C C42A	0
A6C G17U G40A	0.18
A4C U34A G36U C42A	0.05
G5A G21U C46U	0.71
A6G A11U C18U G29A A41U G44U C45A	0.01
G1A C3G C23G G29U U43G C45U	0.05
G7A G21C G35C	0.04
C8G C15U C23U A39C	0.14
U9A A25U A41U G44A C45G	0.17
C15A C18U A25C G33A G35A	0.04
C10A A14G G27U	0.04

Variant	self-cleavage
A12C A14C A24U A39C	0.02
C15G G17U U20A G29U G40U	0.03
A12G A14G A26G	0.01
A6C C23A G40A	0.06
G7C A16U G19A C45U	0.02
C3G G30A G36C U43G	0.09
A4C A11G C31A U32A U34A C42U	0.01
G7A A41G U43A	0.13
C8A U9A U34A	0.09
G5U U28C C37A	0.07
A6U U28A C31G	0.1
G29U U43A C46U	0
C13U G29C G40C A41C	0.05
A4G A16G G36U U38A G40U	0.03
C8G A12U C15U	0.07
G22U G33A A41C C45G	0.08
G2U A26G U28C G40C A41G	0.02
A6G C13G U28G G35U	0.22
C8A C15G U32C G33U U34G G36C U43A	0.04
G5A U9G C42U	0.11
G21A G30A G35U	0.08
C8A U32C U34C A39U C45A	0.29
A6G C13G U28C G33U G36U C45U	0.35
A16U C42U U43G	0.07

Variant	self-cleavage
A12G U20A A24U G36C U38C G44C	0.01
U9G A26G G35A	0.04
G2U A4U G27C G33U	0.01
C8A U9A C18A U28A	0.25
G17U G35A C37A G44U	0.04
A16G C18A A24C A26U	0.07
C15U G22U C46U	0.51
A4G G5U C23U	0.08
C3A C10A C15G	0.08
C23A A25C C45A C46U	0.07
G2U G29U C46U	0.03
G7U C10G C15U G29A C37U U38C	0
U9G G17A C37G G40A	0.04
G7C C15G U20A G22A	0.11
C3A A12U G22C A39G	0.41
C8A A11G A25C U28G G30U C31U	0.02
U9A A12C U34C	0.01
C3A A4U A16G	0.04
G2A A6U C13A G30C C37G	0.06
G2A A6U C10G G30U G33U G36U C42A	0.01
G1U A4G A11G	0.02
G2U G7U A41C	0.02
G2C G21C C31A C46U	0.17
C13A C15U G33A G40U	0.1

Variant	self-cleavage
G1U A14G G21U	0.17
G22A A25U C31U U32G	0.07
G5C C23A G27A	0.03
G1C G5U C13A G29C U34A G36U	0.01
U9A A11C U43A	0.01
A6U G33U U38C G40A C42A	0.03
A6C C13U G22A	0.03
G5A U9A C23U U34C C46A	0.24
A12U A16U G19A C37A A41U	0.06
A4C G27C C45U	0.11
G7A A12U A16G G36U	0.31
C3U A16U C31A	0.02
A14G U20C G21A G27A G29U	0.04
G22A G40U C42A	0.17
C18A G27A C37A	0.03
A11U G27A G33C	0.01
G17A G44A C45U	0.04
G27C U28C C42A G44C	0.01
G1U G29A U43G C46U	0.02
A4G C10G A12C C31U C45A	0.01
A26U G27U G29A	0.99
C8A A11U C15A U38A	0.03
C13A G21U A24C	0.04
G2U U20A C23A G35U G40C	0.03

Variant	self-cleavage
A24C G33U C45A	0.01
G7C G22A U38G	0.01
G7U C10G A14U	0.04
A12C U28C U34G C37U G40A	0.02
C3A A26G U34A C42G	0.1
C18U G33U G36C	0.02
U20C C23U A39U	0.6
C8G C13A G27A	0.1
A24U A26C G33U U34G G40U	0.03
A11U G21A G30U	0.37
G1U C3A G21U C37A	0.44
G29A G36C C46A	0.06
G5U A12G U32C G40C C46U	0.06
C23G G35A C45G	0.82
A6U C13U U28G	0
G2A G5U C10G G19U C42U	0.03
A6C C10A C31U U32G U38C C46G	0
G17C A26U A39U C46G	0.08
G7A C13U G22C A25U G30A C46U	0.06
C3G G7U G22U G44A	0.02
G5A G7C U9A A14G C15A	0.22
U32A A39G C46G	0.03
G5U A24U C45G	0.14
C3U C8U A39U	0.07

Variant	self-cleavage
A4G U9A C10U A16C G17U G27A C31A C46G	0.04
G7C C10A U20G G30A G33A C42G	0
C3G A12U U34A	0.12
A14G G21C A24U	1.18
G2U G7U A12C	0.02
C3A G5A C37G	0.24
G2C G5U C10A A16G	0.01
C8U C15U G22A G27A C31A C42G	0.04
U9C G21U G36A U38A	0.02
C10A A16U G19C G29C	0.02
G5A G17C U38A	0.12
C13U U28C G44C	0.08
A26U G27A U34A U43G	0
A16U C18G G30A	0.25
G7A G33A C37A	0.04
A4G G17U G19C C37G A39G	0.07
A6U A24C C37A	0.04
G1C G5U A41U G44C	0
A6U G7A C8U C13U A39C	2.2
C13A C37G A39C	0.03
A6G C18U G27U C31G	0.01
U20C A41C C45A	0
G5U A14G A39U C42A	0.15
G7C G21C C37A U43A	0.52

Variant	self-cleavage
G17A G22U C23U U32G A39C G40C C45A	0.01
G1C A4C G33A U34G U38A	0.02
U20G C23A G30C	0.04
G5C C10A U28A C31G G35C G44U	0.01
C3A G19C G22A U32G U38A	0.04
G2A A14C G30U C45U	0.33
G1C C3A C13G A41C	0.1
G5C A14C G30U	0.05
G7A A14G U20G A26C	0.14
C18U U34G C37A	0.04
G1U A16G A26U U32A C37A G40U	0.04
G2A C23G G35U	0.15
C8A U20A G30U G33U G35C U38C	0.07
G1U C8U C15G	0.04
G2A A12U C13A C23U	0.52
A4G U34G G40C	0.24
A6G C8G A12C A16C G19A G22A C42A	0.01
G19U A25C U34G C42U	0.36
U34G A41U C45U	0.06
C3U C18U G44C	0.18
C10A G35A G44C	0.1
G5A U20A G36U	0.03
G1A A26C C42U	0.1
